Assay results from PubChem BioAssay AID651820 (National Center for Advancing Translational Sciences (NCATS), 2012).
The campaign covered roughly 340,000 compounds. About 12,000 (3.5%) were called active. The inconclusive results got no clear call from the source; some entries with a clear call stand among them for comparison. Calls come from the whole dose curve; as a rule, active = well fitted inhibition curve with a large enough effect; inconclusive = small, poorly fitted or top-dose-only effect, or another doubt; inactive = no such curve, though single readings can be large or run the other way. Potencies of inconclusive entries are left out as doubtful fits.

experiment: qHTS Assay for Inhibitors of Hepatitis C Virus (HCV); conditions: Huh7.5.1 HCVcc-Cre (HCVcc is cell-culture hepatitis C virus) infection, luciferase reporter, 44 h; activity change, negative = inhibition: at 41.8 µM (top of the series)
Procedure, shortened: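 Cells (1,000/well) were plated 4 h before compound, then infected with HCVcc-Cre virus (~0.5 moi). After 44 h further culture, infection was read as luciferase luminescence following a 15 min substrate incubation at room temperature.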
% is set by controls: 0 for no effect and ±100 for the full control effect; potency is the fitted concentration of half-maximal effect; tags give direction and shape of the fitted curve.

Compound | Potency | activity change, negative = inhibition
COc1ccc(-c2csc(NC(=O)C3=COCCO3)n2)cc1OC | inconclusive [inhibitor, single point] | –
COc1ccc(C(=O)NCCNc2ncc(C(F)(F)F)cc2Cl)cc1[N+](=O)[O-] | inconclusive [inhibitor, single point] | –
CC(=O)c1cc2c(cc1NC(=O)CCc1ccccc1)OCO2 | inconclusive [inhibitor, single point] | –
CCn1c(=O)cc(SCC(=O)N2CCN(c3ccccc3OC)CC2)c2ccccc21 | inconclusive [inhibitor, partial curve] | –
CCO[C@H]1OC(C(=O)NCc2nc3ccccc3[nH]2)=C[C@@H](c2csc3ccccc23)[C@@H]1CCCO | active: 1 µM | –
O=C1CCCc2ccccc2N1Cc1ccc(Cl)cc1Cl | inconclusive [inhibitor, single point] | –
CCCn1c(SCC(=O)c2cc(C)c(C)cc2C)n[nH]c1=O | inconclusive [inhibitor, single point] | –
CCOC(=O)CC1COCCN1C(=O)c1ccc2oc(Cc3ccccc3)nc2c1 (stereo not drawn) | – | inactive: 20.3%
COc1cc(/C=C/C(=O)OCC(=O)N2CCCc3ccccc32)ccc1OCC#N | inconclusive [inhibitor, single point] | –
O=C(CCN1C(=O)C2CCCCC2C1=O)Nc1nc(-c2ccc(F)c(F)c2)cs1 (stereo not drawn) | inconclusive [inhibitor, partial curve] | –
O=C(c1ccco1)N1CCN(c2ncnc3scc(-c4ccc(F)cc4)c23)CC1 | inconclusive [inhibitor, partial curve] | –
CN1C/C(=C/c2ccccc2[N+](=O)[O-])C(=O)/C(=C\c2ccccc2[N+](=O)[O-])C1 | inconclusive [inhibitor, full curve] | –
CN(C)c1nc(SCC(=O)Nc2ccc(Cl)c(Cl)c2)nc(N2CCOCC2)n1 | inconclusive [inhibitor, partial curve, poor fit] | –
Cc1cccc(N2CCN(C(=O)CSCc3c(C)noc3C)CC2)c1C | active: 3.98 µM | –
Cc1ccc(C(=O)N2CCN(C/C=C/c3ccccc3)CC2)cc1S(=O)(=O)N1CCOCC1 | – | inactive: -21.6%
CCC(c1nnnn1Cc1ccco1)N(Cc1cc2cc(OC)ccc2[nH]c1=O)C1CCCCC1 (stereo not drawn) | inconclusive [inhibitor, single point] | –
COc1ccc(C(=O)Nc2ccc(NC(=O)c3cccc(F)c3)cn2)cc1 | inconclusive [inhibitor, single point] | –
COc1cc2ncnc(NCc3ccccc3)c2cc1OC | – | inactive: -12.4%
CCCC(=O)NC(c1ccc(Cl)cc1)c1ccc2cccnc2c1O (stereo not drawn) | active: 1.78 µM | –
C[C@@H]1CC[C@@]23COC(=O)C2=CCC[C@@H]3[C@@]1(C)CC/C(=C/CO)CO | inconclusive [inhibitor, partial curve, poor fit] | –
COc1ccccc1CNCC(=O)Nc1cc(S(=O)(=O)N2CCCCCC2)ccc1Cl | inconclusive [inhibitor, single point] | –
Cc1cccc(C(=O)Nc2nnc(-c3ccc(C(C)(C)C)cc3)s2)c1 | inconclusive [inhibitor, partial curve] | –
COc1cccc2[nH]c(C(=O)NCc3ccccc3)cc12 | inconclusive [inhibitor, single point] | –

Compound | Potency | activity change, negative = inhibition
Cc1cccc(Nc2nc(-c3ccc(F)c(C)c3)cs2)n1 | inconclusive [inhibitor, single point] | –
CCOc1ccc2[nH]c3c(N4CCC5(CC4)OCCO5)ncnc3c2c1 | inconclusive [inhibitor, partial curve] | –
Cc1ccc(Cl)cc1Nc1nc(-c2sc(NC(=O)C(C)(C)C)nc2C)cs1 | – | inactive: 2.33%
O=C(/C=C/C=C/c1ccccc1)CC1(O)C(=O)Nc2ccccc21 (stereo not drawn) | – | inactive: 14.8%
O=C(CN1CCCC1c1cccs1)Nc1cc(S(=O)(=O)N2CCCCC2)ccc1Cl (stereo not drawn) | active: 5.01 µM | –
C=CCNC(=S)N/N=C/c1ccc(N(CC)Cc2ccccc2)cc1 | inconclusive [inhibitor, partial curve] | –
CCOC(=O)c1c(NC(=O)Cn2c(C)nc3ccccc32)sc2c1CCC2 | inconclusive [inhibitor, partial curve] | –
COc1cccc(CNC(=O)CCC2CCCN(Cc3cc4ccccc4o3)C2)c1 (stereo not drawn) | inconclusive [inhibitor, single point] | –
COCOc1ccc(C2CC(=O)c3c(OCOC)cc(OCOC)cc3O2)cc1 (stereo not drawn) | inconclusive [inhibitor, partial curve, poor fit] | –
O=C(NC1CCCC1)C1CCCN1S(=O)(=O)c1cccc2cccnc12 (stereo not drawn) | – | inactive: -8.44%
CCCNC(=O)c1oc2ccc3c(c2c1C)C=CC(C)(C)O3 | inconclusive [inhibitor, partial curve, poor fit] | –
CC(C)N(Cc1nc2ccccc2c(=O)[nH]1)C(=O)c1ccc(NC(=O)CSc2nnnn2C)cc1 | – | inactive: 13.8%
c1csc(COc2ccccc2CNC2CCCCC2)c1 | inconclusive [inhibitor, single point] | –
O=C(COC(=O)c1cc([N+](=O)[O-])ccc1N1CCOCC1)NCc1ccc(Cl)cc1Cl | inconclusive [inhibitor, full curve] | –
CCN(CC(=O)Nc1cccc(S(=O)(=O)N2CCCCC2)c1)Cc1ccccc1 | inconclusive [inhibitor, single point] | –
COc1ccc(C(C(=O)NC(C)(C)C)N(Cc2ccc(F)cc2)C(=O)CCC(=O)Nc2cc(C)on2)cc1 (stereo not drawn) | inconclusive [inhibitor, partial curve] | –
CC1(C)Cc2ccccc2-c2nc(-c3ccccc3)oc(=O)c21 | – | inactive: -12.6%
CC(=O)Nc1sc(N/N=C\c2ccccc2Cl)nc1-c1cccs1 | – | inactive: -17.6%
Cc1noc(/C=C/c2ccco2)c1S(=O)(=O)N1CCC(C(=O)N2CCc3ccccc3C2)CC1 | active: 11.2 µM | –
Cc1ccc(-c2cc(C(F)F)n3ncc(C(=O)N4CCc5ccccc5C4)c3n2)cc1 | active: 11.2 µM | –
COc1ccc2ccccc2c1/C=N/NC(=O)c1ccccc1F | inconclusive [inhibitor, partial curve] | –
CC(=O)/C(=N/Nc1ccccc1)Sc1nnc(CCc2ccccc2)n1-c1ccccc1 | – | inconclusive: -50.4% [inhibitor]
Cc1cc(Cl)ccc1NNC(N)=S | inconclusive [inhibitor, single point] | –

Compound | Potency | activity change, negative = inhibition
CCN(CC)C(=O)c1sc2nc(-c3cccs3)cc(-c3ccc(Cl)cc3)c2c1N | inconclusive [inhibitor, single point] | –
COc1ccc(-c2cc(C(=O)NCCCN3CCOCC3)c3cc(C(C)C)ccc3n2)cc1 | inconclusive [inhibitor, single point] | –
O=C(OCc1nnn(Cc2ccccc2)c1-c1c(COC(=O)c2ccccc2)nnn1Cc1ccccc1)c1ccccc1 | inconclusive [inhibitor, partial curve] | –
CCOc1ccc(CNC(=S)NCc2ccc(OCC)cc2)cc1 | inconclusive [inhibitor, single point] | –
Cc1ccc(NC(=O)c2ccc(-n3cccn3)c([N+](=O)[O-])c2)cc1C | inconclusive [inhibitor, full curve, poor fit] | –
COC(C/C=C/C(=O)[C@@H](C)OCc1ccccc1)OC | – | inactive: -1.38%
O=C(Nc1cccc(-c2ccc(F)cc2)c1)C1CCCN(Cc2cccnc2)C1 (stereo not drawn) | inconclusive [inhibitor, full curve, poor fit] | –
CN(C)CCNc1ccc2ncn3c4ccc(O)cc4c(=O)c1c23 | inconclusive [inhibitor, full curve] | –
COC(=O)C1=C(C)NC=C([N+](=O)[O-])C1c1ccc(OC)cc1 (stereo not drawn) | – | inactive: 10.7%
CC(=O)Oc1ccccc1C(=O)OCCN=C1NS(=O)(=O)c2ccccc21 | – | inactive: 3.05%
Cc1ccc(CNC(=O)[C@H](Cc2ccccc2)NC(=O)C2CCNCC2)cc1 | – | inactive: 2.31%
CN(C)CCNC(=O)c1cc2c(s1)-c1ccccc1OC2 | active: 25.1 µM | –
CCN(CC)c1ccc(C=Nc2cc(C)ccc2C)c(O)c1 | – | inactive: -22.6%
CCOC(=O)C1CCCN(S(=O)(=O)c2ccccc2)C1 (stereo not drawn) | – | inactive: 9.18%
O=C(Nc1ccc(O)c(-c2nc3ccccc3o2)c1)C1(c2ccc([N+](=O)[O-])cc2)CCCC1 | – | inactive: 1.88%
Cc1ccc(C)c(N2CCN(C(=O)c3nn(C)c4c3CS(=O)(=O)c3ccccc3-4)CC2)c1 | inconclusive [inhibitor, single point] | –
BrC(=C\c1ccccc1)/C=N/Nc1ccc2nncn2n1 | inconclusive [inhibitor, single point] | –
O=C(NCC1CCCO1)C1CCN(C2CCN(C3CCCCCC3)CC2)CC1 (stereo not drawn) | inconclusive [inhibitor, partial curve] | –
COc1ccc(C(C)C)cc1S(=O)(=O)NC1CCCC1 | – | inactive: 13.2%
O=C(NC(=S)Nc1ccc(NC(=O)c2ccccc2)cc1)c1ccc(F)cc1 | inconclusive [inhibitor, full curve, poor fit] | –
O=C(c1cccc2ccccc12)N1CCN(c2ccc([N+](=O)[O-])c(N3CCOCC3)c2)CC1 | inconclusive [inhibitor, single point] | –
CCN(CC)CCNS(=O)(=O)c1ccc2[nH]cc(C(=O)O)c(=O)c2c1 | inconclusive [inhibitor, full curve, poor fit] | –
